In PMC4336329 (PLoS ONE, 2015):
Screen size: about 310,000 compounds; about 2,200 (0.71%) showed an effect of 50% or more. The effect is printed as a negative number. The list shows a part of the results.

biological target: human ether-à-go-go-related gene (hERG) potassium channel (human, UniProt Q12809); experiment: primary screen, population patch clamp on CHO cells stably expressing hERG
Sequence (Q12809 whole entry, looked up): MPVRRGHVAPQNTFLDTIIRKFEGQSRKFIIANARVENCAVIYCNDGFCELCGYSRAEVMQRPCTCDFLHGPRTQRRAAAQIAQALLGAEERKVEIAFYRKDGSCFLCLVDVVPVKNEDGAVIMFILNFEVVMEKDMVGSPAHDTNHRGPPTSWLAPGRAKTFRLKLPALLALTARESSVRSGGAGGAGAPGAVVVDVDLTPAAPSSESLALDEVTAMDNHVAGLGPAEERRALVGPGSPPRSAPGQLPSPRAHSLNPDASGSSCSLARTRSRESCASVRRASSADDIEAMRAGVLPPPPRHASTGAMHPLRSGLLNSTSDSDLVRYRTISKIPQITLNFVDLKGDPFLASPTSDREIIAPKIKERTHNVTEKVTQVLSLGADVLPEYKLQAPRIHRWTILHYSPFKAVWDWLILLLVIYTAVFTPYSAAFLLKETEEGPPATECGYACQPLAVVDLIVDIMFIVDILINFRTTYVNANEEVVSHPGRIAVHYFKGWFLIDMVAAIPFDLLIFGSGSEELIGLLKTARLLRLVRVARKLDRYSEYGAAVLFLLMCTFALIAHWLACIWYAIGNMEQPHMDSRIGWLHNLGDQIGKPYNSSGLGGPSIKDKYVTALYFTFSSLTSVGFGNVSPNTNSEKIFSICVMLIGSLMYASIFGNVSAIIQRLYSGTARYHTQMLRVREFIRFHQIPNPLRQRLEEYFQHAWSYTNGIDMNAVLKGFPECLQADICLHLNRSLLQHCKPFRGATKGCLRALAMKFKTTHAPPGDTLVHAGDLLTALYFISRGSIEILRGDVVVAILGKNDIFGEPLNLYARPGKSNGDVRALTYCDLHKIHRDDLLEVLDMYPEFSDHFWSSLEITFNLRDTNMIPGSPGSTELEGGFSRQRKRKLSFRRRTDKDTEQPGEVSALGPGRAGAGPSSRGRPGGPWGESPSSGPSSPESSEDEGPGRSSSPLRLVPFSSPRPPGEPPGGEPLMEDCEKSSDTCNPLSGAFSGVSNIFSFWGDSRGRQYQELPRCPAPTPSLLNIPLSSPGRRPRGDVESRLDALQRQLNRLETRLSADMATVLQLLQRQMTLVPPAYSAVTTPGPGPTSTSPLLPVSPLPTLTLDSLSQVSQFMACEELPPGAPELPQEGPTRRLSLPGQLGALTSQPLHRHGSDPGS

Row | Compound | hERG current change (%, negative = inhibition) at 1uM
1 | CCOc1ccccc1NC(=O)c1csc(C)c1C | 3.97%
2 | Cl.O=C1CN=C(Nc2ccc(Cl)cc2)N1c1ccccc1 | 16%
3 | O=c1c2[nH]c3ccc(F)cc3c2ncn1CCN1CCN(Cc2ccccc2)CC1 | -31.6%
4 | CC(=O)N/C(=C/c1ccc2c(c1)OCO2)C(=O)NCCO | 12.9%
5 | CC(C)c1ccc(/C=N/NC(=O)c2ccccn2)cc1 | 0.552%
6 | Cc1ccc(NC(=O)CCc2ccc(C)o2)cc1 | 7.21%
7 | COCCn1ccc2c(OCC(=O)NCCc3ccccc3)cccc2c1=O | 0.744%
8 | CCCCN(C(=O)CCn1c(=O)oc2ccccc21)c1ccccc1 | 10.8%
9 | CC1CCCCC12NC(=O)N(CC(=O)Nc1ccc3[nH]c(=O)[nH]c3c1)C2=O (centres unmarked) | 16.6%
10 | CC(=O)c1sc(NC(=O)c2ccc(C)cc2)nc1C | 9.09%
11 | Cc1ccccc1OCCNCC(C)O.O=C(O)C(=O)O (centres unmarked) | 16.9%
12 | O=C(COc1ccccc1Cl)Nc1cccc(S(=O)(=O)N2CCCC2)c1 | 2.26%
13 | COc1ccc(NC(=S)Nc2cccc(Cl)c2Cl)cc1OC | 4.56%
14 | O=C(Nc1ncc2c(n1)-c1ccccc1CC2)c1cccs1 | 4.34%
15 | CCOc1ccc(/C=N/NC(=O)CC(=O)Nc2ccc(Cl)c(Cl)c2)cc1 | 3.55%
16 | O=c1oc2cc(OCc3ccc(C(F)(F)F)cc3)ccc2cc1-c1ccccn1 | 6.31%
17 | Cc1cc(Nc2cccc(Cl)c2)n2ncnc2n1 | 3.06%
18 | O=C(Nc1cc([N+](=O)[O-])ccc1N1CCOCC1)c1cccs1 | 11%
19 | Nc1nonc1C(=O)N/N=C/c1ccc(Br)o1 | 9.21%
20 | N#Cc1cc2c(cc1NC(=O)CCn1cnnn1)OCO2 | 13%
21 | CCN(Cc1nc2ccccc2c(=O)[nH]1)Cc1nc2cc(OC)c(OC)cc2c(=O)[nH]1 | 22%
22 | O=C(CN(Cc1ccco1)C(=O)c1cccc(F)c1)Nc1ccccc1C(F)(F)F | 3.39%
23 | CC(=O)Nc1ccc(S(=O)(=O)Oc2ccc(C(=S)N3CCCCC3)cc2)cc1 | 6.99%

Row | Compound | hERG current change (%, negative = inhibition) at 1uM
24 | Cc1nnc(N(Cc2ccco2)C(=O)c2ccc(C#N)cc2)s1 | 0.524%
25 | CC(C)CC(=O)CC1(O)C(=O)Nc2ccccc21 (centres unmarked) | 17.7%
26 | C=CCOc1ccc(/C(O)=C2/C(=O)C(=O)N(CCCN3CCOCC3)C2c2ccc(OC)cc2)cc1 (centres unmarked) | 9.31%
27 | CCOc1ccccc1NC(=O)c1ccc2c(c1)C(=O)N(CC)C2=O | 11.7%
28 | COC(=O)n1c(=S)oc2cc(Cl)ccc21 | 6.84%
29 | CCOC(=O)c1c(NC(=O)C2c3ccccc3Oc3ccccc32)sc(C(N)=O)c1C | 7.92%
30 | CCOC(=O)c1nnn(-c2nonc2NC(C)=O)c1C | 6.57%
31 | Cc1nn(CCC(=O)NCCc2ccccc2Cl)c(=O)c2nn(-c3ccccc3)c(C)c12 | 15.7%
32 | COc1ccc(-c2nnc(SCC(=O)c3[nH]c(C)c(C(C)=O)c3C)o2)cc1 | 1.98%
33 | Oc1cccc(C(=S)N2CCC(Cc3ccccc3)CC2)c1 | 14%
34 | COc1cccc(NC(=S)NN2C(C)CCCC2C)c1 (centres unmarked) | 5.92%
35 | O=C(Nc1nnc(SCC(=O)N2CCCC2)s1)C1CC(=O)N(c2ccccc2)C1 (centres unmarked) | 14.9%
36 | Cc1cnccc1NC(=O)c1cccs1 | 5.06%
37 | CC(C)(C)CC(=O)Nc1nnc(-c2cccs2)s1 | 6.56%
38 | Cc1cccc(NS(=O)(=O)c2cccc(C(=O)N3CCCCCC3)c2)c1 | 11.8%
39 | CN(CC(=O)Nc1cccc(F)c1)C(=O)c1cccc(S(=O)(=O)N2CCN(c3ccccc3)CC2)c1 | -2.88%
40 | COC(=O)c1ccccc1NC(=O)N1CCN(Cc2ccco2)CC1 | 13.4%
41 | O=C(CCc1nnc2ccc(NCc3ccco3)nn12)Nc1ccccc1F | 10.6%
42 | Cc1csc(NC(=O)CSc2nc(C)nc3c2c(=O)n(C)c(=O)n3C)n1 | 3.97%
43 | CCN(C(=O)Cc1c(C(=O)O)n(CC)c2ccccc12)c1ccccc1C | 14.7%
44 | COc1cc(NC(=O)NCC2CCN(Cc3ccccc3F)CC2)cc(OC)c1 | 9.58%
45 | O=C(c1ccccc1)N1CCN2C(=O)c3ccccc3C12c1ccc(Cl)cc1 (centres unmarked) | 8.41%
46 | CC(C)Cc1nnc(NC(=O)C2CSC3(C)CCC(=O)N23)s1 (centres unmarked) | 4.72%

Row | Compound | hERG current change (%, negative = inhibition) at 1uM
47 | CC(C)c1c(C(=O)N/N=C/c2ccccc2C(=O)O)nnn1-c1nonc1N | 7.36%
48 | O=C(Nc1cccnc1Cl)c1cc(-c2ccc(F)cc2)on1 | 10%
49 | COC(=O)c1c(NC(=O)CCNCc2ccco2)sc2c1CCC2.O=C(O)C(=O)O | 2.08%
50 | NC(=O)c1sc2nc3c(c(-c4ccco4)c2c1N)CCCC3 | 8.13%
51 | CC12CS(=O)(=O)CC1SC(=S)N2c1ccccn1 (centres unmarked) | 9.88%
52 | CCN1CCN(C(=O)c2[nH]c3ccc(OC)cc3c2C)CC1 | 4.51%
53 | CCN(CC)CCCNC(=O)CCc1c(C)n(CC)c2cc(-c3ccccc3OC)nn2c1=O | 21.1%
54 | CC1=[N+]([O-])C(C)(C)C(c2ccc(Br)cc2)=[N+]1[O-] | 3.36%
55 | C=CCNC(=O)c1c(CSc2ccccc2)noc1C(=O)NCc1ccccc1 | 17.7%
56 | O=C(NCc1cccs1)C1CCC(=O)N(Cc2cccc(C(F)(F)F)c2)C1 (centres unmarked) | 12.4%
57 | CCOCCCN(C(=O)c1snc(C(N)=O)c1N)C(C(=O)NC1CCCC1)c1ccc(O)c(OC)c1 (centres unmarked) | 11%
58 | CC(=O)Oc1ccccc1C(=O)NC(C)CCc1ccccc1 (centres unmarked) | 4.41%
59 | COc1cc(CC(=O)OCC(=O)Nc2cc([N+](=O)[O-])ccc2F)cc(OC)c1OC | -7.7%
60 | Nc1ncnc2c1nc(N1CCCCC1)n2[C@@H]1O[C@H](CO)[C@@H](O)[C@H]1O | 4.36%
61 | COc1ccc(S(=O)(=O)N2CCC(C(=O)N[C@@H](C)C(=O)NC3CC3)CC2)cc1 | 15.4%
62 | CO[C@H]1C=C2CCN(C)[C@H]2C2c3cc4c(cc3C(=O)O[C@@H]21)OCO4.O=[N+]([O-])O (some centres unmarked) | 10.5%
63 | NC(=O)N/N=C/c1ccc(-n2nncc2-c2ccc(Cl)cc2)cc1 | 5.68%
64 | CC1=NNC(=O)C1CCC(=O)N/N=C\c1ccccc1[N+](=O)[O-] (centres unmarked) | 3.25%
65 | CCCN(CCC)c1nc2ccccc2n2c(C)nnc12 | 11.6%
66 | CCOc1ccc(NCc2cccn2-c2nnc(N3CCC(C(=O)NCCCN4CCCCC4CC)CC3)s2)cc1 (centres unmarked) | -1.84%
67 | Cc1ccc(S(=O)(=O)N2CCN(C(=O)c3c(-c4ccccc4)noc3C)CC2)c(C)c1 | -7.79%
68 | CCOc1ccccc1NS(=O)(=O)c1cccc2nsnc12 | 3.49%
69 | CCN(C1CCCCC1)S(=O)(=O)c1ccc(S(=O)(=O)N2CCN(CCC#N)CC2)cc1 | 5%

Row | Compound | hERG current change (%, negative = inhibition) at 1uM
70 | COCCCN(Cc1cccs1)S(=O)(=O)c1csc(C(N)=O)c1 | 13%
71 | O=Cc1ccc(C(=O)OCC(=O)N2CCCC2)cc1 | 15.2%
72 | Cc1cc(C)c(C#N)c(Nc2ccccc2C)n1 | 11.6%
73 | CC(C)CC(=O)NC(=S)Nc1ccc(NC(=O)c2ccco2)cc1 | 18.2%
74 | O=C(CSc1nn(-c2ccccc2)c(=S)s1)Nn1cnnc1 | 8.5%
75 | O=C(NCCCN1CCCC1=O)c1ccc(Cl)c(S(=O)(=O)N2CCCCC2)c1 | 9.57%
76 | CCc1cc2c(nc1CC)CCN(CC/C(C)=N/O[C@@H](C)c1cc(-c3c(C)cc(C)cc3C)no1)C2 | 6.45%
77 | CCOC(=O)C1=C(C)NC(=O)CC1c1ccccc1 (centres unmarked) | 8.94%
78 | COc1ccc(C)cc1N(C(=O)c1cccc(F)c1)c1nc2ccccc2s1 | -6.86%
79 | CC(CC(=O)Nc1ncc([N+](=O)[O-])s1)c1ccccc1 (centres unmarked) | 6.02%
80 | CC(=O)c1ccc(N2CCN(C(=O)c3ccc(NC(=O)C4CCCO4)cc3)CC2)cc1 (centres unmarked) | 3.59%
81 | CC(C)CNC(=S)N(CCN(C)C)Cc1cc2cc3c(cc2[nH]c1=O)OCCO3 | 10.1%
82 | COc1ccc(-c2cc(C(=O)NN)n(-c3ccccc3)n2)cc1 | -5.62%
83 | OCCNc1nc2ccccc2n1-c1ccccc1 | 9.72%
84 | CCOc1ccc(C2=[N+]([O-])C(C)(C)N(O)C2(C)C)cc1 | 12.3%
85 | CCn1c(SCC(=O)NC2CCCCC2C)nnc1-c1ccc(OC)cc1 (centres unmarked) | 2.58%
86 | Cc1nccn1CCc1n[nH]c(=S)n1Cc1ccccc1 | -2.64%
87 | COc1ccccc1Oc1ccc(NC(=O)c2ccc(Cl)cc2)cc1 | 13.3%
88 | COc1ccc(C2C(C(=O)OCC(=O)N3CCCCC3)CCC(=O)N2c2ccc(OC)cc2)cc1 (centres unmarked) | 4.82%
89 | Cc1nn(C)cc1CNC(=O)c1cccc(Cl)c1 | 5.44%
